We go through two molecules from patent publication US20230212319A1, “NOVEL ANTIGEN BINDING DOMAINS AND SYNTHETIC ANTIGEN RECEPTORS INCORPORATING THE SAME” (University of Southern California, priority 2020, published 2023).

Substitutions are numbered along the chain they refer to.

The subject of this assay is HL60 cells. Description: JNG NFAT-GFP induction on co-culture with HL60.

B1: 21853 (protein)
chain: MALPVTALLLPLALLLHAARPSYVLTQPPSVSVAPGQTARITCGGNNIGGKSVHWYQQPPGQAPVVVVYDDSDRPSGIPERFSGSNSGNTATLTISRVEAGDEAVYYCQVWDSSSDHVVFGGGTKLTVLLEDLKNVFPPEVAVFEPSEAEISHTQKATLVCLATGFYPDHVELSWWVNGKEVHSGVCTDPQPLKEQPALNDSRYCLSSRLRVSATFWQNPRNHFRCQVQFYGLSENDEWTQDRAKPVTQIVSAEAWGRADCGFTSESYQQGVLSATILYEILLGKATLYAVLVSALVLMAMVKRKDSRGRAKRSGSGATNFSLLKQAGDVEENPGPTSMDWIWRILFLVGAATGAHSFEQLQLQESGPGLVKPSETLSLTCTVSGGSISSSSYFWGWIRQPPGKGLEWIGSIYYSGITYYNPSLKSRVTISVDTSKNQFSLKLSSVTAADTAVYYCARHDGAVAGLFDYWGQGTLVTVSSATRIQNPDPAVYQLRDSKSSDKSVCLFTDFDSQTNVSQSKDSDVYITDKCVLDMRSMDFKSNSAVAWSNKSDFACANAFNNSIIPEDTFFPSPESSCDVKLVEKSFETDTNLNFQNLSVIGFRILLLKVAGFNLLMTLRLWSS
With B1, the “GFP induction upon co-culture with HL60” value is recorded as “no GFP induction”.

B2: 21852 (protein)
chain: B1 chain with I48L, G50S, S391G, S423T
As for B2, the “GFP induction upon co-culture with HL60” value is “no GFP induction”.
